Measurements from PubChem BioAssay AID1645882 (National Center for Advancing Translational Sciences (NCATS), 2021).
About 120 (0.75%) of roughly 16,000 compounds were called active. About 4% were inconclusive and are not listed. The call rests on the fitted dose curve; in most records, active means well fitted inhibition curve with a large enough effect; inconclusive means small, poorly fitted or top-dose-only effect; inactive means no such curve, though single readings can be large or run the other way. The list shows a part of the results.

These molecules were tested against Rap guanine nucleotide exchange factor 3 (Homo sapiens) (UniProt O95398) (assay: Validation qHTS for antagonist of cAMP-regulated guanine nucleotide exchange factor 3 (EPAC1)). Details: EPAC1 Rap1B-BODIPY-GDP exchange, fluorescence; activity change, negative = inhibition: at the top concentration.
UniProt O95398, sequence (O95398 whole entry, looked up): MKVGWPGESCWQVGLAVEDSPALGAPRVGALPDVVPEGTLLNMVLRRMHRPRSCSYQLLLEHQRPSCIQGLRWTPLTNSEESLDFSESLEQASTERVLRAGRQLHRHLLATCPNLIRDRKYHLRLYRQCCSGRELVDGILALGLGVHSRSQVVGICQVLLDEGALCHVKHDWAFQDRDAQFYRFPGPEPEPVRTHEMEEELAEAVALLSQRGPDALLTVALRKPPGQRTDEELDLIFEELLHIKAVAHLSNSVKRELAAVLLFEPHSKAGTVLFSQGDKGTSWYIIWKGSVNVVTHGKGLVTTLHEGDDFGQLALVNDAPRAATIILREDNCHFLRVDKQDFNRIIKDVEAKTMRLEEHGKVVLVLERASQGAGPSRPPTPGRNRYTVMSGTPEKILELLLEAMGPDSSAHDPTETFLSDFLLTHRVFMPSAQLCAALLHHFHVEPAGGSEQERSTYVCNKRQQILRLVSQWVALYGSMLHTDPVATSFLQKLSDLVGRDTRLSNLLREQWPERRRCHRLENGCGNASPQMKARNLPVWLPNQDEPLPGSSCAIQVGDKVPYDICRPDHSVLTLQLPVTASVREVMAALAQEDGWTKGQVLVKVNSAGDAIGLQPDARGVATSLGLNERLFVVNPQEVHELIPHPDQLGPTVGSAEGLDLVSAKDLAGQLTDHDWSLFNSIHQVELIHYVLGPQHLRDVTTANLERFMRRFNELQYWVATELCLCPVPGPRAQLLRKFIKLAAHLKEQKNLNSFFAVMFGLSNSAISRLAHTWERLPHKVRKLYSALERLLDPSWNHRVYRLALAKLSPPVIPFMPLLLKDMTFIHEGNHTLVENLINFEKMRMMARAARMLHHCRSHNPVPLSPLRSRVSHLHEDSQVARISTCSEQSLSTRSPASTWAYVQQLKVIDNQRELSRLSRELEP
Method in brief: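 EPAC1 (100 nM) mixed with 250 nM RAP1B-BODIPY-GDP and 50 uM GDP; compounds in concentration series, 5 min at room temperature. Fluorescence (ex 480/em 540 nm) read every 5 min for 30 min; normalized to ATA control and DMSO.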
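Further: plate controls were DMSO for no effect and ATA control for full effect; nearly all actives have a fitted effect of over 75% in size.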

SMILES	activity change, negative = inhibition
CCCCc1ccc(C(=O)O)nc1	inactive
N[C@@H](Cn1ccc(=O)n(Cc2ccc(C(=O)O)cc2)c1=O)C(=O)O	inactive: -8.89%
COc1cc(OC)c2c(c1)OC(c1ccc(OC)c(OC)c1)C(O)C2 (configuration not stated)	inactive: 8.09%
Oc1ccc(Cl)cc1Cc1ccccc1	inactive
CC(C)N1C(=O)c2ccccc2NS1(=O)=O	inactive: 13.9%
COc1ccc2c(c1O)-c1c(OC)c(OC)cc3c1[C@@H](C2)N(C)CC3	inactive: -8.98%
CC[C@]1(O)C(=O)OCc2c1cc1n(c2=O)Cc2cc3ccccc3nc2-1	inactive: 6.98%
Oc1ccc2c3c1O[C@H]1c4[nH]c5c(c4C[C@@]4(O)[C@@H](C2)N(CC2CC2)CC[C@]314)C[C@@]1(O)[C@H]2Cc3ccc(O)c4c3[C@@]1(CCN2CC1CC1)[C@H]5O4	inactive
CCC1(c2ccccc2)CCC(=O)NC1=O (configuration not stated)	inactive: 15.9%
c1cc2ccc3cccc4ccc(c1)c2c34	inactive: 31.6% [at 320 µM]
C[C@@H]([C@H](O)c1ccccc1)N(C)C	inactive: 14.4%
COc1ccc2c3c1O[C@H]1[C@@H](O)C=C[C@H]4[C@@H](C2)N(C)CC[C@@]341	inactive: 19.6% [at 320 µM]
N#Cc1ccc(CN2CC[C@@]3(CCCN(C(=O)Oc4ccccc4)C3)C2)cc1	inactive: 0.985%
CC(=O)OC1C(=O)[C@]2(C)C(O)CC3OC[C@]3(OC(C)=O)C2[C@@H](OC(=O)c2ccccc2)[C@]2(O)CC(O)C(C)=C1C2(C)C (some centres not stated)	inactive: 13.3%
CC1C(=O)OC2O[C@]3(C)CC[C@H]4C(C)CCC1[C@]24OO3 (some centres not stated)	inactive: 8.62%
O=C(OCCN1CCCCC1)C(O)(c1ccccc1)c1ccccc1	inactive: 12.9%
C[C@]12CCC3C(C=CC4=CC(=O)CC[C@]43C)C1CC[C@]2(O)CCC(=O)O (some centres not stated)	inactive: 6.34%
COc1ccc2[nH]cc(CCN)c2c1	inactive
N#Cc1cccc(NC(=O)N2CCCC3(CCN(C(=O)Oc4ccccc4)CC3)C2)c1	inactive: 3.85%
[O]=[Cr](=[O])([OH])[O][Cr](=[O])(=[O])[OH]	inactive
c1ccc(CN2CCC3(CCNCC3)CC2)cc1	inactive: 18.7%
CC(C)(C)NCC(O)c1cc(Cl)c(N)c(C(F)(F)F)c1 (configuration not stated)	inactive: 4.49%
Cc1ncc(CNC(=O)N(CCCl)N=O)c(N)n1	inactive
COc1cc(C[C@@H](C)N)c(OC)cc1C	inactive: 35.5% [at 320 µM]
CC(N)[C@H](O)c1ccc(O)c(O)c1 (some centres not stated)	inactive: 7.57% [at 75.8 µM]
CC1(C)C(=O)C=C[C@@]2(C)C1=C(O)C(=O)[C@@]1(C)C2CC[C@@]2(C)C(c3ccoc3)C[C@H]3O[C@@]321 (some centres not stated)	inactive: 8.18%

SMILES	activity change, negative = inhibition
CCC1C(C)=NN=C(c2ccc(OC)c(OC)c2)c2cc(OC)c(OC)cc21 (configuration not stated)	inactive: 9.92%
CC(C)=CC1C(C(=O)OCN2C(=O)C3=C(CCCC3)C2=O)C1(C)C (configuration not stated)	inactive: 0.319%
CN1CCCCC1c1ccc(-c2cccnc2)nc1 (configuration not stated)	inactive
C[C@]12CCC(=O)C[C@@H]1CC[C@@H]1[C@@H]2CC[C@]2(C)[C@@H](O)CC[C@@H]12	inactive: 5.15%
Clc1cccc(N2CCNCC2)c1	inactive
COc1ccc2[nH]cc(CCNCc3ccc(Br)cc3)c2c1	inactive: 5.03%
CCCN(CCC)C(=O)Cc1c(-c2ccc(Cl)cc2)nc2ccc(Cl)cn12	inactive: 13.6%
Clc1ccc(CSC(Cn2ccnc2)c2ccc(Cl)cc2Cl)cc1 (configuration not stated)	inactive: -6.63% [at 75.8 µM]
CN1c2ccccc2C(NCCCCCCC(=O)O)c2ccc(Cl)cc2S1(=O)=O (configuration not stated)	inactive: 17.3%
O=C(CN1CCCCC1c1cccnc1)c1ccccc1 (configuration not stated)	inactive: 7.76%
CCCCCCC(=O)O[C@H]1CC[C@H]2[C@@H]3CC[C@H]4CC(=O)C=C(C)[C@]4(C)[C@H]3CC[C@]12C	inactive: 2.5%
Oc1c(Br)cc(Br)cc1Br	inactive: 14.2%
COc1cc(C[C@H](C)N)c(OC)cc1Br	inactive: 16.5% [at 320 µM]
NCCc1cc(O)c(O)cc1O	inactive: -25.8%
C#CCOS(=O)OC1CCCCC1Oc1ccc(C(C)(C)C)cc1 (configuration not stated)	inactive: 11.2%
CC(C)C1C(=O)N2CCCC2[C@]2(O)O[C@@](NC(=O)[C@@H]3C=C4c5cccc6[nH]cc(c56)C[C@H]4N(C)C3)(C(C)C)C(=O)N12 (some centres not stated)	inactive: 2.76%
CCC(=O)O[C@@](Cc1ccccc1)(c1ccccc1)[C@@H](C)CN(C)C	inactive: 7.21% [at 75.8 µM]
CN1CC[C@@]23CCCCC2C1Cc1ccc(O)cc13 (some centres not stated)	inactive: 0.89%
NNc1ccccc1	inactive: 32%
C[C@]12Cc3cn4c(nc3C=C1CCC1C2CC[C@@]2(C)[C@H]1CC[C@@]2(O)C#N)nc1ccccc14 (some centres not stated)	inactive: 14.2% [at 75.8 µM]
CN(C)CCc1c[nH]c2ccc(O)cc12	inactive: 34.5% [at 320 µM]
COC([CH2][Hg])CNC(=O)c1ccccc1OCC(=O)O (configuration not stated)	inactive: 22.7%
COC(=O)N1CCC2(CCCN(C)C2)CC1	inactive: 4.25%
C[C@@]12CCC(=O)C[C@@H]1CC[C@@H]1[C@@H]2CC[C@]2(C)C(=O)CC[C@@H]12	inactive: 3.48%
CN1CC[C@@]2(CCCN(C(=O)c3ccncc3)C2)C1	inactive: 11%
CC1(C)OC1COc1c2occc2cc2ccc(=O)oc12 (configuration not stated)	inactive: 13.7%
